Measurements reported in ChEMBL document CHEMBL4888484, “Replenishing the malaria drug discovery pipeline: Screening and hit evaluation of the MMV Hit Generation Library 1 (HGL1) against asexual blood stage Plasmodium falciparum ,using a nano luciferase reporter read-out” (2022).
The campaign covered roughly 150,000 compounds. About 540 (0.36%) showed an effect of 50% or more. The list shows a part of the results.

The compounds below were run on Plasmodium falciparum (assay: Primary screen in NF54 nanoGlo assay, in single point, at 2uM, 72h; a lower Z score goes with more inhibition). Details: timepoint 72 hour.
Type: functional, Erythrocyte
In the case of `COc1ccc(-n2c(C)cc(C(=O)N(C)C3C4CCOC4C3(C)C)c2C)cc1` (stereo not given), the “% Inhibition” value is reported as 14% and the Z score is reported as -1.73.
In the case of `Cc1ccc(C)c(NC(=O)[C@H]2CCCN(C(=O)Cc3cccc4ccccc34)C2)c1`, the “% Inhibition” value is reported as -6% and the Z score is reported as 1.01.
In the case of `CC[C@H]1C[C@@H](NC(C)=O)C[C@@H](c2nc(C(C)C)cs2)O1`, the “% Inhibition” value is reported as -9% and the Z score is reported as 1.08.
For `N[C@H](c1nc(C2CCOCC2)nn1-c1ccncc1)C1CC1`, the “% Inhibition” value was -13% and the Z score was 1.5.
With `Cc1cc(-c2cccnc2)nn1CCNC(=O)NCc1cccs1` the “% Inhibition” value was 27% and the Z score was -3.48.
With `CN(C(=O)NCCN1CCCOCC1)C1CC1` the “% Inhibition” value was -1% and the Z score was 0.1.
For `CCN(C(=O)c1cccnc1)c1ncccc1C`, the “% Inhibition” value was -9% and the Z score was 1.02.
For `COc1ccc(NC(=O)c2ccc(C)nc2C2CCN(C(=O)c3c(F)cccc3F)CC2)cc1`, the “% Inhibition” value was 6% and the Z score was -0.7.
For `CC(C)c1nc(C2CCCN(C(=O)C3COCCO3)C2)no1` (stereo not given), the “% Inhibition” value was -11% and the Z score was 1.64.
With `COc1ccc(COCC(=O)NCc2nn(C)cc2C)cc1` the “% Inhibition” value was -13% and the Z score was 2.33.
For `CCC(=O)Nc1cc(F)ccc1C(C)=O`, the “% Inhibition” value was -12% and the Z score was 1.38.
With `CCNS(=O)(=O)[C@H]1CCN(C(=O)c2cccc(OC(C)C)n2)C1` the “% Inhibition” value was -14% and the Z score was 1.86.
With `O=C(O)CCN1CCC[C@H](c2nc(C(F)(F)F)cs2)C1` the “% Inhibition” value was -4% and the Z score was 0.39.
In the case of `NC(=O)C1CCCC1NC(=O)c1ccc(C2CCC2)cc1` (stereo not given), the “% Inhibition” value is reported as 9% and the Z score is reported as -1.19.
`Cc1cc(S(=O)(=O)Nc2nc(C(F)(F)F)c[nH]2)c(C)o1` was tested, and the “% Inhibition” value was -6% and the Z score was 0.78.
In the case of `O=C(Cc1ccccc1F)N1CC[C@H]2[C@H](CCCN2CC2CCCCC2)C1`, the “% Inhibition” value is reported as -8% and the Z score is reported as 0.87.
With `CCc1c(C(=O)N[C@H]2COC[C@@H]2O)cnn1CCC(C)C` the “% Inhibition” value was -7% and the Z score was 1.02.
In the case of `COc1cccc(CN2C[C@]34C=C[C@H](O3)C(C(=O)N3CCN(C)C(=O)C3)C4C2=O)c1` (stereo not given in full), the “% Inhibition” value is reported as -2% and the Z score is reported as 0.23.
For `O=C(C1=Cc2ccccc2OC1)N1CCCS1(=O)=O`, the “% Inhibition” value was -11% and the Z score was 1.33.
With `O=C(NCCc1c[nH]c2ccccc12)c1c[nH]c(=O)n(Cc2ccco2)c1=O` the “% Inhibition” value was -1% and the Z score was 0.24.
In the case of `CCn1c(-c2cccc(OC)c2)nc2cc(NC(C)=O)cc(C(=O)NCCc3cnccn3)c21`, the “% Inhibition” value is reported as 20% and the Z score is reported as -2.51.
For `C[C@@H](Cc1cnccn1)N(C)C(=O)Cc1c[nH]c2ccccc12`, the “% Inhibition” value was -5% and the Z score was 0.89.
`COc1cc(CNCc2ccncc2)ccc1OCc1ccc(C)cc1` was tested, and the “% Inhibition” value was -1% and the Z score was 0.2.
`O=C(NCc1ccc(Cl)s1)N[C@H](CO)Cc1ccc(O)cc1` was tested, and the “% Inhibition” value was -14% and the Z score was 1.93.
For `CCn1ncnc1[C@H](C)NC(=O)Nc1cccc2[nH]nnc12`, the “% Inhibition” value was 1% and the Z score was -0.18.
In the case of `CNC(=O)c1cccnc1NCC1(N(C)C)CCCC1`, the “% Inhibition” value is reported as 3% and the Z score is reported as -0.52.
In the case of `COCCn1ccnc1CN(C)CCN1CCOCC1`, the “% Inhibition” value is reported as -3% and the Z score is reported as 0.61.
With `COCCN(Cc1ccc(C)o1)C(=O)c1ccon1` the “% Inhibition” value was -6% and the Z score was 0.99.
In the case of `OCC1([C@@H](NCc2ncc(Cl)cc2Br)C2CC2)CCOCC1`, the “% Inhibition” value is reported as -8% and the Z score is reported as 1.31.
In the case of `O=S1(=O)c2ccccc2N(Cc2cccc(C(F)(F)F)c2)c2ccccc21`, the “% Inhibition” value is reported as 1% and the Z score is reported as -0.14.
In the case of `CCN1CCN([C@H]2CCN(c3nc(-c4ccc(F)cc4)no3)C2)CC1`, the “% Inhibition” value is reported as 1% and the Z score is reported as -0.16.
`O=C1C[C@@H](c2ccccc2)N(Cc2ccncc2)CCCN(C(=O)CC2CCCCC2)CCN1` was tested, and the “% Inhibition” value was 2% and the Z score was -0.24.
For `CN(C)C(=O)c1cccnc1-c1cccc(OCc2ccc(F)cc2)c1`, the “% Inhibition” value was -3% and the Z score was 0.51.
With `CC(C)N1C[C@@H](C(=O)N2CCN(c3ccc(F)c(Cl)c3)CC2)CC1=O` the “% Inhibition” value was 8% and the Z score was -1.57.
With `Oc1cc(-c2ccc(Cl)cn2)cc2c1OCCN(Cc1ccco1)C2` the “% Inhibition” value was 0% and the Z score was 0.07.
In the case of `Cc1ccc(CCC(=O)NCc2cccnc2-c2ccncc2)cc1F`, the “% Inhibition” value is reported as -12% and the Z score is reported as 1.38.
For `Cc1ncn(CC(=O)NCC(=O)N[C@@H](C)c2ccc(F)cc2)c1C`, the “% Inhibition” value was -7% and the Z score was 0.7.
In the case of `CCCN(Cc1cc(-c2ccccc2)on1)C(=O)c1ccco1`, the “% Inhibition” value is reported as -2% and the Z score is reported as 0.3.
With `COc1ccnc(C(=O)N[C@@H](C)c2nc(C)sc2C)c1` the “% Inhibition” value was -8% and the Z score was 1.07.
For `O=C([C@@H]1C[C@H](Oc2ccccc2)CN1C1CCOCC1)N1CCC(Cc2ccccc2)CC1`, the “% Inhibition” value was -6% and the Z score was 0.8.
`CS(=O)(=O)N[C@@H]1CC[C@H]2CCOc3ccccc3C(=O)N3CCN(Cc4ccc(F)c(F)c4)C[C@H]3C(=O)NC[C@H]1O2` was tested, and the “% Inhibition” value was 4% and the Z score was -0.66.
With `Cc1ccc2[nH]c(=O)c(CN(C(=O)c3ccncc3)C3CCCCC3)cc2c1` the “% Inhibition” value was -19% and the Z score was 1.98.
With `Cc1cc(C(=O)NC2(CN3CCOCC3)CCCC2)cc(C)n1` the “% Inhibition” value was -6% and the Z score was 0.7.
In the case of `Cc1cnn(CC(C)NC(C)C(=O)NCC2CCCO2)c1` (stereo not given), the “% Inhibition” value is reported as -5% and the Z score is reported as 0.63.
In the case of `CO[C@H]1CCC[C@@H]1NC(=O)N1CC(F)C1`, the “% Inhibition” value is reported as 2% and the Z score is reported as -0.38.
For `Cc1cc(O)n2nc(CC(=O)N3CC[C@@](O)(C4CCOCC4)[C@H](C)C3)nc2n1`, the “% Inhibition” value was -12% and the Z score was 1.16.
With `COc1ccc(-c2nn(-c3ccccc3)c(N)c2NC(=O)NCc2ccccn2)cc1` the “% Inhibition” value was 9% and the Z score was -1.34.
In the case of `CCCC(=O)NCc1ccc2c(c1)CCN2C(=O)c1ccncc1`, the “% Inhibition” value is reported as -8% and the Z score is reported as 0.74.
With `CC1CN(Cc2ccccc2)CC1NC(=O)Cc1ccccc1O` (stereo not given) the “% Inhibition” value was -2% and the Z score was 0.3.
For `COc1cc2c(cc1OC)CN(C(=O)Cn1nnnc1C1CCCC1)CC2`, the “% Inhibition” value was -3% and the Z score was 0.65.
`COc1cc(F)c(CN2CC[C@@]3(CCCNC3)C2)c(F)c1` was tested, and the “% Inhibition” value was -2% and the Z score was 0.28.
With `CCc1cccc(Nc2nc3ccncc3n(C(C)C)c2=O)c1` the “% Inhibition” value was 1% and the Z score was -0.13.
For `Cc1cccc(C(NC(=O)[C@@H]2CCCO2)C(F)(F)F)c1` (stereo not given in full), the “% Inhibition” value was -6% and the Z score was 0.81.
For `CNC(=O)c1cccnc1N1CC[C@](C)(COC)C1`, the “% Inhibition” value was -1% and the Z score was 0.18.
In the case of `Cc1cc(NC(=O)N2CCC=C(c3cn(C(C)C)nn3)CC2)n(C)n1`, the “% Inhibition” value is reported as -15% and the Z score is reported as 2.7.
For `O=C(NCc1cccc(C(F)(F)F)n1)c1[nH]ccc1C1CC1`, the “% Inhibition” value was -4% and the Z score was 0.54.
In the case of `C[C@@H]1CN(CC2CCCCO2)CC(C(N)=O)O1` (stereo not given in full), the “% Inhibition” value is reported as -13% and the Z score is reported as 1.98.
With `CC[C@](C)(NC(=O)c1cc(C2CC2)n(C)n1)c1nccs1` the “% Inhibition” value was -3% and the Z score was 0.58.
With `COCN1C(=O)CCc2cc(NCc3ccnn3C)ccc21` the “% Inhibition” value was -6% and the Z score was 0.85.
With `Cc1ccc(C(=O)N2CCNC(=O)[C@@H]2c2ccc(F)cc2)cc1OCCN` the “% Inhibition” value was -17% and the Z score was 2.25.
In the case of `Cn1nccc1CNC(=O)C1CC1c1ccc(Cl)cc1Cl` (stereo not given), the “% Inhibition” value is reported as -3% and the Z score is reported as 0.46.
`COCCC(=O)N1C[C@@H](COc2cccnc2)[C@H](c2ccccn2)C1` was tested, and the “% Inhibition” value was -6% and the Z score was 1.05.
`C[C@H]1CN(C(=O)Cc2ccon2)c2cc(F)c(F)cc2O1` was tested, and the “% Inhibition” value was -8% and the Z score was 0.85.
With `C[C@H](Nc1cccc2c1CCO2)c1cccnc1` the “% Inhibition” value was 37% and the Z score was -2.09.
In the case of `CC(O)CNC(=O)CCC1CCCO1` (stereo not given), the “% Inhibition” value is reported as -2% and the Z score is reported as 0.42.
`O=C(Nc1ccc2ncnn2c1)N1C[C@H]2CCC[C@H]2C1` was tested, and the “% Inhibition” value was -1% and the Z score was 0.18.
`Cc1ccc(N2CCN(C(=O)c3ccc4c(c3)CC(=O)N4C)CC2)cc1` was tested, and the “% Inhibition” value was -5% and the Z score was 0.57.
With `Cc1cccc(OCC(=O)c2ccc3c(c2)N(Cc2nc(C(=O)N4CCC(C)CC4)cs2)C(=O)CO3)c1` the “% Inhibition” value was -14% and the Z score was 1.75.
`O=C(Cn1ncc(N2CCNCC2)cc1=O)N(Cc1ccccc1)C1CCCC1` was tested, and the “% Inhibition” value was -12% and the Z score was 1.58.
For `c1ccc(CNc2cc(-n3ccnc3)ncn2)cc1`, the “% Inhibition” value was -3% and the Z score was 0.34.
For `CC(=O)Nc1ccc(CN[C@@H]2CO[C@H](CNC(=O)c3ccccc3)[C@H]2O)cc1`, the “% Inhibition” value was -18% and the Z score was 2.26.
With `c1cn2c(n1)CN(Cc1nnnn1C1CC1)CC2` the “% Inhibition” value was -3% and the Z score was 0.46.
For `C=C(C)C[C@H](C)C(=O)N(CC)c1ccc(N2CCOCC2)cc1`, the “% Inhibition” value was -11% and the Z score was 0.94.
`Cn1nc(O)c2c1CN(C[C@H]1COc3ccccc3O1)CC2` was tested, and the “% Inhibition” value was -8% and the Z score was 1.02.
`CC(C)Oc1ccc(CN2CCn3c(nn(CC4CC4)c3=O)C2)cc1` was tested, and the “% Inhibition” value was -19% and the Z score was 3.29.
With `CC1(C)OC2C(CO)OC(n3cnc4c(NC(=O)c5ccccc5)ncnc43)C2O1` (stereo not given) the “% Inhibition” value was -33% and the Z score was 3.82.
In the case of `O=C([C@@H]1Cc2ccccc21)N1CCOC2(CCS(=O)(=O)CC2)C1`, the “% Inhibition” value is reported as -14% and the Z score is reported as 1.82.
For `CC(C)n1cnnc1CN1CCN(CC2CC2)[C@@H]2CS(=O)(=O)C[C@@H]21`, the “% Inhibition” value was 5% and the Z score was -0.76.
For `COc1ccccc1N1CCN(CC(=O)N2CCC[C@H](Oc3cc(C#N)ccn3)C2)C1=O`, the “% Inhibition” value was -12% and the Z score was 1.86.
`Cc1nc(NC2CCCCC2)sc1C(=O)Nc1ccc(F)cc1F` was tested, and the “% Inhibition” value was -7% and the Z score was 0.94.
With `Cc1cc(C(=O)N2CCC(c3cc(N)on3)CC2)c(C)o1` the “% Inhibition” value was -12% and the Z score was 1.89.
For `CCN1CCN(C(=O)c2nc(-c3ccccc3)nc3c2OCCO3)CC1`, the “% Inhibition” value was -3% and the Z score was 0.4.
For `COc1ccc2c(c1)OC(C)(C)CN(Cc1ncccc1C(=O)O)C2`, the “% Inhibition” value was 2% and the Z score was -0.24.
In the case of `COc1c(F)ccc(-c2cn(Cc3c(C)noc3C)nn2)c1F`, the “% Inhibition” value is reported as -11% and the Z score is reported as 1.65.
With `COCCN1CC[C@H](C(=O)Nc2ccc(N3CCCC3)c3ncccc23)C1` the “% Inhibition” value was -15% and the Z score was 1.74.
